According to article PMC6563326 (Structure (London, England : 1993), 2018):

What was measured:
[1] = target: the molecule itself; test: SEC
[2] = target: the molecule itself; test: SEC; remark: listed apart in the source

B1: Hsp27*-D3 (S15D/S78D/S82D on cysteine-free Hsp27*) (natural protein)
chain: not shown
[1]
  stoichiometry N: 2 subunits

B2: Hsp27* (cysteine-less human Hsp27, C137A) (natural protein)
chain: not shown
[2]
  stoichiometry N: 2 subunits

B3: Hsp27*-PLPP/AAAA (natural protein)
chain: not shown
[1]
  binding result: binds

Where two headings read alike, the source gives them in different places.
